Assay [1] deals with TRPML1-Cub-LexA-VP16 (mouse) (UniProt Q99J21). In words: two-hybrid; split-ubiquitin yeast two-hybrid, directed test: TRPML1-Cub-LexA-VP16 with NubG or NubI fusions in NMY51; growth on SD -leu -trp -ade -his +1 mM 3-AT at 30 C, scored over four days.
Assay [2] addresses GFP-TRPML1 (murine), expressed in HeLa cells (mouse) (UniProt Q99J21). The experiment in a line: co-IP; HeLa cells co-transfected with GFP or GFP-TRPML1 and a V5-fused candidate; anti-GFP beads, anti-V5 Western; absence of Ca2+; strength graded by film exposure time.
Assay [3] addresses TRPML1-Cub-LexA-VP16 (mouse) (UniProt Q99J21). The experiment in a line: two-hybrid; split-ubiquitin yeast two-hybrid library screens: TRPML1-Cub-LexA-VP16 against mouse heart X-NubG and mouse NubG-X cDNA libraries; SD -leu -trp -ade -his +1-5 mM 3-AT; hits confirmed by retransformation.
Assay [4] deals with GFP-TRPML1 (murine), expressed in HeLa cells (mouse) (UniProt Q99J21). The experiment in a line: co-IP; HeLa cells co-transfected with GFP or GFP-TRPML1 and a V5-fused candidate; anti-GFP beads, anti-V5 Western; absence of Ca2+; strength graded by film exposure time. This is another data set of the same source.
In assay [5] the target is GFP-TRPML1 (mouse), stably expressed in RAW264.7 macrophages (mouse) (UniProt Q99J21). In words: co-IP; anti-GFP beads on lysates of RAW264.7 clones stably expressing GFP-TRPML1 or Derlin-1-GFP; Western for endogenous proteins; absence of Ca2+.
For the next assay, the target named is T1, Derlin-1-GFP (UniProt Q99J56).
T1 sequence: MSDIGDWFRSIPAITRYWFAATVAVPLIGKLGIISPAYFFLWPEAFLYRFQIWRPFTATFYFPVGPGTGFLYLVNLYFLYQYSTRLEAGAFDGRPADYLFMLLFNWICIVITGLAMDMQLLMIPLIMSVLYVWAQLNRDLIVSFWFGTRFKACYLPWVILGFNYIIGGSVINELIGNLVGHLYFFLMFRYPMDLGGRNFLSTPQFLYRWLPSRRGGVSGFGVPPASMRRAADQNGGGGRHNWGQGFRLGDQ
The description is as above.

Amino acid sequences for entries named in this document (tags omitted). A change or cut given only in a name is not applied to a line headed by its entry.
UniProt A2AF53: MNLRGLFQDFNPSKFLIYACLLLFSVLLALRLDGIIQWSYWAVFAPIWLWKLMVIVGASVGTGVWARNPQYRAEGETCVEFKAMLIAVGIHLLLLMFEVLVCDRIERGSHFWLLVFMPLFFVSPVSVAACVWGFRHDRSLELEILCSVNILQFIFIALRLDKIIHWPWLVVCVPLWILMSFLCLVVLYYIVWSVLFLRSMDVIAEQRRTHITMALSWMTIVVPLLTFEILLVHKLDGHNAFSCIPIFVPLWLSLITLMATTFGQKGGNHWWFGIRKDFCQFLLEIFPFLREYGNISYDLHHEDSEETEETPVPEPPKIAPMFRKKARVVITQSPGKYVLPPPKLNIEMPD
UniProt Q9CQE7: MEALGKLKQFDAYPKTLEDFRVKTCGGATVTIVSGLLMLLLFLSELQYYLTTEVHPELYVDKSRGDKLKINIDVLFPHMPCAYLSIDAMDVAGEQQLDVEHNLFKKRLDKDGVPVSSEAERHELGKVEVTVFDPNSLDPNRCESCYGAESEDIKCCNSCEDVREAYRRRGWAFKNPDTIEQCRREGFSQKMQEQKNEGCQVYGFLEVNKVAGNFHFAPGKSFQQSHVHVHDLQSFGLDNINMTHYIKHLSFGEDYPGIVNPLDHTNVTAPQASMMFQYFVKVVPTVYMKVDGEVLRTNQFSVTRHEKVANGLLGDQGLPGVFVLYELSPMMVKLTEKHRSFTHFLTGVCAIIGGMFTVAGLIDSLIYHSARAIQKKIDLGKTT
UniProt Q62048: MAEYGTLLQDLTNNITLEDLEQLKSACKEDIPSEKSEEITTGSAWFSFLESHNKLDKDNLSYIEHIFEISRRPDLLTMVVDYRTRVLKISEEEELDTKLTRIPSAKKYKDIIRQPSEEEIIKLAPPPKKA
UniProt P84096: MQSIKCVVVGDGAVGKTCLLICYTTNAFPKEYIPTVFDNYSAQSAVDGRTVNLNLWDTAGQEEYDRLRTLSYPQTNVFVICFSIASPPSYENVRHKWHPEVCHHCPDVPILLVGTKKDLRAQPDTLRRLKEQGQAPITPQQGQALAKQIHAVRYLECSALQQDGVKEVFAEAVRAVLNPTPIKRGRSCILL
UniProt P60766: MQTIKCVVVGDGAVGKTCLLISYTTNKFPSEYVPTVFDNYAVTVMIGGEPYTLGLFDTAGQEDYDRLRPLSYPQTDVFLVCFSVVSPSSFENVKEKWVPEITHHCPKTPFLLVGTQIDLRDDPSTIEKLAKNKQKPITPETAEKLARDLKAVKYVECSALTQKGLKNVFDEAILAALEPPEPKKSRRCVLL
UniProt P70182: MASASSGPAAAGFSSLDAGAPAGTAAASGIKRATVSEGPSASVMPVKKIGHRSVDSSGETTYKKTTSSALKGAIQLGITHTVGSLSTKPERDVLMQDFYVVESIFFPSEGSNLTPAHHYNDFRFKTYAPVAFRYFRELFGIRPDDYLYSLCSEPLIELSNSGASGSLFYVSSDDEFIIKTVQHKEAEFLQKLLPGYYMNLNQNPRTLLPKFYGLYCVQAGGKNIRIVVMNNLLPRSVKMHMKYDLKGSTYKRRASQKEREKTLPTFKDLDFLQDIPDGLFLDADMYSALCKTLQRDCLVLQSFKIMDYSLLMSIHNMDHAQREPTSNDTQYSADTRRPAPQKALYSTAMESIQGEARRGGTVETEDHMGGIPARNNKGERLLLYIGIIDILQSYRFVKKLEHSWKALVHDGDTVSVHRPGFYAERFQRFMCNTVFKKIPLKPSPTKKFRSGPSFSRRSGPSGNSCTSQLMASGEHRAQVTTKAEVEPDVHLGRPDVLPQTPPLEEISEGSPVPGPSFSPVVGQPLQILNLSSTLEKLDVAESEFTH

Where two headings read alike, the source gives them in different places. These are yes or no findings as the source states them, for the method shown. For part of these data: In cells and extracts the contact can be indirect. Some binding calls cover weakened binding; strength is not graded here. For part of these data: Where a sequence is shown, tags or fusion partners need not be part of it.

With NubG-NP9 (from UniProt A2AF53 1-350), the binding entry in assay [1] was “binds”. In the case of V5-ERGIC (from UniProt Q9CQE7 1-383), the binding entry in assay [2] was “binds”. For the molecule NubG-ERGIC (from UniProt Q9CQE7 1-383), the binding entry in assay [1] is recorded as “binds”. For V5-NP9 (from UniProt A2AF53 1-350), the binding entry in assay [2] is “binds”.

Take V5-PEA-15 (from UniProt Q62048 1-130): the binding result in assay [2] was “no binding”.

As to V5-RhoG (from UniProt P84096 1-191), in assay [2], the binding entry is given as “no binding”. With V5-Cdc42 (from UniProt P60766 1-191), the binding result in assay [2] was “binds weakly”.

In the case of NubG-RhoG (from UniProt P84096 1-191), the binding result in assay [1] is recorded as “no binding”. Regarding “P5KT1(BAA13031), truncated form of the first 366 amino acids, library clone of the SU-YTH screen (from UniProt P70182 1-366) (domain or fragment)”, the binding entry in assay [3] is given as “binds”. As to NubG-Cdc42 (from UniProt P60766 1-191), the binding result in assay [1] is “binds”. Take “V5-P5KT1(BAA13031) (from UniProt P70182 1-546)”: the binding result in assay [2] was “no binding”.

B1: NubG-BAE30441 (protein, UniProt Q91VC9 1-346)
chain: MLAARLVCLRTLPSRVFQPTFITKASPLVKNSITKNQWLVTPSREYATKTRIRTHRGKTGQELKEAALEPSMEKIFKIDQMGRWFVAGGAAVGLGALCYYGLGMSNEIGAIEKAVIWPQYVKDRIHSTYMYLAGSIGLTALSALAVARTPALMNFMMTGSWVTIGATFAAMIGAGMLVHSISYEQSPGPKHLAWMLHSGVMGAVVAPLTILGGPLLLRAAWYTAGIVGGLSTVAMCAPSEKFLNMGAPLGVGLGLVFASSLGSMFLPPTSVAGATLYSVAMYGGLVLFSMFLLYDTQKVIKRAEITPMYGAQKYDPINSMLTIYMDTLNIFMRVATMLATGSNRKK
With B1, in assay [1], the binding result was “binds”.

B2: V5-STOML1 (protein, UniProt Q8CI66 1-399)
chain: MLGRSGYRALPLGDFDRFQQSSFGFLGSQKGCLSPEPGSVGPGADAPESWPSCLCHGLVSVLGFLLLLLTFPISGWFALKIVPTYERMIVFRLGRIRNPQGPGMVLLLPFIDSFQRVDLRTRAFNVPPCKLASKDGAVLSVGADVQFRIWDPVLSVMAVKDLNTATRMTAHNAMTKALLRRPLQEIQMEKLKIGDQLLLEINDVTRAWGLEVDRVELAVEAVLQPPQDSLTVPSLDSTLQQLALHLLGGSMNSAVGRVPSPGPDTLEMINEVEPPASLAGAGAEPSPKQPVAEGLLTALQPFLSEALVSQVGACYQFNVILPSGTQSIYFLDLTTGQGRVGHGEPDGIPDVVVEMAEADLQALLSKELRPLGAYMSGRLKVKGDLAVVMKLEAVLKALK
Consider B2, for which the binding entry in assay [4] was “binds”.

B3: endogenous mouse STOML1 (protein, UniProt Q8CI66 1-399)
chain: MLGRSGYRALPLGDFDRFQQSSFGFLGSQKGCLSPEPGSVGPGADAPESWPSCLCHGLVSVLGFLLLLLTFPISGWFALKIVPTYERMIVFRLGRIRNPQGPGMVLLLPFIDSFQRVDLRTRAFNVPPCKLASKDGAVLSVGADVQFRIWDPVLSVMAVKDLNTATRMTAHNAMTKALLRRPLQEIQMEKLKIGDQLLLEINDVTRAWGLEVDRVELAVEAVLQPPQDSLTVPSLDSTLQQLALHLLGGSMNSAVGRVPSPGPDTLEMINEVEPPASLAGAGAEPSPKQPVAEGLLTALQPFLSEALVSQVGACYQFNVILPSGTQSIYFLDLTTGQGRVGHGEPDGIPDVVVEMAEADLQALLSKELRPLGAYMSGRLKVKGDLAVVMKLEAVLKALK
On to B3, for which, in assay [5], the binding entry was “binds”.

B4: Sorting Nexin 2 (protein, UniProt Q9CWK8 1-519)
chain: MAAEREPPPLGDVKPTDFEELEDGEDLFTSTVSTLESSPSSPEPASLPAEDISANSNGSKPVEVVLDDDREDLFAEATEEVSLDSPERELILSSEPSPAVTPVTPTTLIAPRIESKSISAPVIFDRSRDEIEEEANGDIFDIEIGVSDPEKVGDGMNAYMAYRVTTKTSLSMFSKSEFSVKRRFSDFLGLHSKLASKYLHVGYIVPPAPEKSIVGMTKVKVGKEDSSSTEFVEKRRAALERYLQRTVKHPTLLQDPDLRQFLESSELPRAVNTQALSGAGILRMVNKAADAVNKMTIKMNESDAWFEEKQQQFENLDQQLRKLHASVEALVCHRKELSANTAAFAKSAAMLGNSEDHTALSRALSQLAEVEEKIDQLHQEQAFADFYMFSELLSDYIRLIAAVKGVFDHRMKCWQKWEDAQITLLKKRETEAKMMVANKPDKIQQAKNEIREWEAKVQQGERDFEQISKTIRKEVGRFEKERVKDFKAVIIKYLESLVQTQQQLIKYWEAFLPEAKAIA
On to B4, for which, in the assay with Derlin-1-GFP, the binding entry was “binds”.

B5: Destrin (protein, UniProt Q9R0P5 1-165)
chain: MASGVQVADEVCRIFYDMKVRKCSTPEEIKKRKKAVIFCLSADKKCIVVEEGKEILVGDVGATITDPFKHFVGMLPEKDCRYALYDASFETKESRKEELMFFLWAPEQAPLKSKMIYASSKDAIKKKFPGIKHEYQANGPEDLNRTCIAEKLGGSLIVAFEGSPV
B5: the binding result (with Derlin-1-GFP; in assay [5]) was “no binding” in each case.

B6: V5-BAE30441 (protein, UniProt Q91VC9 46-346)
chain: YATKTRIRTHRGKTGQELKEAALEPSMEKIFKIDQMGRWFVAGGAAVGLGALCYYGLGMSNEIGAIEKAVIWPQYVKDRIHSTYMYLAGSIGLTALSALAVARTPALMNFMMTGSWVTIGATFAAMIGAGMLVHSISYEQSPGPKHLAWMLHSGVMGAVVAPLTILGGPLLLRAAWYTAGIVGGLSTVAMCAPSEKFLNMGAPLGVGLGLVFASSLGSMFLPPTSVAGATLYSVAMYGGLVLFSMFLLYDTQKVIKRAEITPMYGAQKYDPINSMLTIYMDTLNIFMRVATMLATGSNRKK
For the molecule B6, in assay [4], the binding result is “no binding”.

(Values after PMC3572064.)
